In publication PMC12820563, “FoxP3 forms a head-to-head dimer in vivo and stabilizes its multimerization on adjacent microsatellites” one finds binding signal data, which are given here for 32 sequences.

This is one part of the list.

The target of this assay is T1, MBP-FoxP1dN (Mus musculus, UniProt P58462 326-579).
T1 sequence: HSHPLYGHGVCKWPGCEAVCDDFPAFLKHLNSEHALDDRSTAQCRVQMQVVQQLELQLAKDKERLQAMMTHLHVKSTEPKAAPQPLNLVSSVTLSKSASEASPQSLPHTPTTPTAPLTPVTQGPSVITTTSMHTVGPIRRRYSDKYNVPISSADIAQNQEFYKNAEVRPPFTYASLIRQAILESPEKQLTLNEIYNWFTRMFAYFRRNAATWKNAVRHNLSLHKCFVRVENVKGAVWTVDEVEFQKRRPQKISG
As to the kind of experiment: PD-seq (MBP pull-down with sequencing); 20 mM Tris-HCl pH 7.5, 100 mM NaCl, 1.5 mM MgCl2, 0.4 uM protein, 0.1 uM dsDNA library, 30 min, room temperature, amylose pull-down; high values mean tight binding. Particulars: protein: recombinant; tags: His6-MBP; chain copies: 2; dsDNA, one strand shown. The essentials:
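Protein and DNA were mixed at 0.4 µM and 0.1 µM and held for 30 min at room temperature in Tris pH 7.5 buffer with NaCl and MgCl2; the protein was a His6-MBP-tagged, N-terminally truncated mouse FoxP3 or FoxP1 fragment from E. coli, and the DNA a Klenow-filled double-stranded degenerate library. Amylose resin captured the complexes, which were washed three times. Binding is read as reads-per-million enrichment of pull-down versus input after Illumina sequencing, with replicates pooled.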
Take “GATGATTGTTCTCCCAGCTGATGAATTTGCTGCTTCGAGTAAACAAATTTTCCTAATCTTTCTGTTCAAGCGCCATCTAC”: the binding signal is 1.04 RPM ratio (pull-down/input). Then “GATGATTGTTCTCCCAGCTGATGAATTTACCACCTCGAGTAAACAAATTTTCCTAATCTTTCTGTTCAAGCGCCATCTAC”, with 1.09 RPM ratio (pull-down/input); and “GATGATTGTTCTCCCAGCTGATGAATTCCTGCAATCGAGTAAACAAATTTTCCTAATCTTTCTGTTCAAGCGCCATCTAC”, with 1 RPM ratio (pull-down/input). Then “GATGATTGTTCTCCCAGCTGATGAATTTCGGTGTTCGAGTAAACAAATTTTCCTAATCTTTCTGTTCAAGCGCCATCTAC”, with 0.974 RPM ratio (pull-down/input); and “GATGATTGTTCTCCCAGCTGATGAATTCTCAAAGTCGAGTAAACAAATTTTCCTAATCTTTCTGTTCAAGCGCCATCTAC”, with 0.816 RPM ratio (pull-down/input); and “GATGATTGTTCTCCCAGCTGATGAATTAAAGCCTTCGAGTAAACAAATTTTCCTAATCTTTCTGTTCAAGCGCCATCTAC”, with 0.916 RPM ratio (pull-down/input). Then “GATGATTGTTCTCCCAGCTGATGAATTACCAAAGTCGAGTAAACAAATTTTCCTAATCTTTCTGTTCAAGCGCCATCTAC”, with 0.959 RPM ratio (pull-down/input); and “GATGATTGTTCTCCCAGCTGATGAATTGTTAGGATCGAGTAAACAAATTTTCCTAATCTTTCTGTTCAAGCGCCATCTAC”, with 1.24 RPM ratio (pull-down/input); and “GATGATTGTTCTCCCAGCTGATGAATTTTTTGGGTCGAGTAAACAAATTTTCCTAATCTTTCTGTTCAAGCGCCATCTAC”, with 0.836 RPM ratio (pull-down/input).

Turning to “GATGATTGTTCTCCCAGCTGATGAATTAACGGGCTCGAGTAAACAAATTTTCCTAATCTTTCTGTTCAAGCGCCATCTAC”, the binding signal was 0.82 RPM ratio (pull-down/input).

Take “GATGATTGTTCTCCCAGCTGATGAATTGTGACACTCGAGTAAACAAATTTTCCTAATCTTTCTGTTCAAGCGCCATCTAC”: the binding signal was 1.12 RPM ratio (pull-down/input). On to “GATGATTGTTCTCCCAGCTGATGAATTTTAACATTCGAGTAAACAAATTTTCCTAATCTTTCTGTTCAAGCGCCATCTAC”, for which the binding signal was 0.959 RPM ratio (pull-down/input). In the case of “GATGATTGTTCTCCCAGCTGATGAATTCCCTAAGTCGAGTAAACAAATTTTCCTAATCTTTCTGTTCAAGCGCCATCTAC”, the binding signal is 0.784 RPM ratio (pull-down/input). With “GATGATTGTTCTCCCAGCTGATGAATTTACTTACTCGAGTAAACAAATTTTCCTAATCTTTCTGTTCAAGCGCCATCTAC”, the binding signal was 1.42 RPM ratio (pull-down/input). For “GATGATTGTTCTCCCAGCTGATGAATTATCCCGCTCGAGTAAACAAATTTTCCTAATCTTTCTGTTCAAGCGCCATCTAC”, the binding signal is 0.866 RPM ratio (pull-down/input). Then “GATGATTGTTCTCCCAGCTGATGAATTCTTCTGTTCGAGTAAACAAATTTTCCTAATCTTTCTGTTCAAGCGCCATCTAC”, with 0.827 RPM ratio (pull-down/input). For the sequence “GATGATTGTTCTCCCAGCTGATGAATTTCGAGGTTCGAGTAAACAAATTTTCCTAATCTTTCTGTTCAAGCGCCATCTAC”, the binding signal was 0.815 RPM ratio (pull-down/input).

With “GATGATTGTTCTCCCAGCTGATGAATTCGAATAGTCGAGTAAACAAATTTTCCTAATCTTTCTGTTCAAGCGCCATCTAC”, the binding signal was 0.864 RPM ratio (pull-down/input).

Take “GATGATTGTTCTCCCAGCTGATGAATTTGGTTTATCGAGTAAACAAATTTTCCTAATCTTTCTGTTCAAGCGCCATCTAC”: the binding signal is 1.32 RPM ratio (pull-down/input). Then “GATGATTGTTCTCCCAGCTGATGAATTTCTTTCTTCGAGTAAACAAATTTTCCTAATCTTTCTGTTCAAGCGCCATCTAC”, with 0.908 RPM ratio (pull-down/input). Regarding “GATGATTGTTCTCCCAGCTGATGAATTCAATCGATCGAGTAAACAAATTTTCCTAATCTTTCTGTTCAAGCGCCATCTAC”, the binding signal was 0.929 RPM ratio (pull-down/input). “GATGATTGTTCTCCCAGCTGATGAATTTCCTACTTCGAGTAAACAAATTTTCCTAATCTTTCTGTTCAAGCGCCATCTAC”: the binding signal is 0.89 RPM ratio (pull-down/input). Then “GATGATTGTTCTCCCAGCTGATGAATTGAGAATTTCGAGTAAACAAATTTTCCTAATCTTTCTGTTCAAGCGCCATCTAC”, with 0.82 RPM ratio (pull-down/input); and “GATGATTGTTCTCCCAGCTGATGAATTTTTATACTCGAGTAAACAAATTTTCCTAATCTTTCTGTTCAAGCGCCATCTAC”, with 1.03 RPM ratio (pull-down/input). Then “GATGATTGTTCTCCCAGCTGATGAATTTCTTTGATCGAGTAAACAAATTTTCCTAATCTTTCTGTTCAAGCGCCATCTAC”, with 0.956 RPM ratio (pull-down/input); and “GATGATTGTTCTCCCAGCTGATGAATTCGCGTCGTCGAGTAAACAAATTTTCCTAATCTTTCTGTTCAAGCGCCATCTAC”, with 0.878 RPM ratio (pull-down/input); and “GATGATTGTTCTCCCAGCTGATGAATTGGGCTGTTCGAGTAAACAAATTTTCCTAATCTTTCTGTTCAAGCGCCATCTAC”, with 0.869 RPM ratio (pull-down/input). Consider “GATGATTGTTCTCCCAGCTGATGAATTCTGCGAATCGAGTAAACAAATTTTCCTAATCTTTCTGTTCAAGCGCCATCTAC”, for which the binding signal is 0.931 RPM ratio (pull-down/input). Then “GATGATTGTTCTCCCAGCTGATGAATTGATATGTTCGAGTAAACAAATTTTCCTAATCTTTCTGTTCAAGCGCCATCTAC”, with 1.27 RPM ratio (pull-down/input); and “GATGATTGTTCTCCCAGCTGATGAATTTGATATCTCGAGTAAACAAATTTTCCTAATCTTTCTGTTCAAGCGCCATCTAC”, with 0.967 RPM ratio (pull-down/input).

As to “GATGATTGTTCTCCCAGCTGATGAATTGGCTTCTTCGAGTAAACAAATTTTCCTAATCTTTCTGTTCAAGCGCCATCTAC”, the binding signal is 0.926 RPM ratio (pull-down/input). For “GATGATTGTTCTCCCAGCTGATGAATTACGCCTCTCGAGTAAACAAATTTTCCTAATCTTTCTGTTCAAGCGCCATCTAC”, the binding signal is 1.01 RPM ratio (pull-down/input).
